# Experimental data reported in the supplement of paper PMC4166925.
# ± gives the standard deviation of the averaged measurements. In all, about 33,000 sequences were measured (“E-score (dimensionless, -0.5 to 0.5)”: median about -0.046, highest 2% from about 0.36 on). This is one part of the list.
# System: T1, SpTbr T-box DNA-binding domain (GST fusion)
# T1 sequence: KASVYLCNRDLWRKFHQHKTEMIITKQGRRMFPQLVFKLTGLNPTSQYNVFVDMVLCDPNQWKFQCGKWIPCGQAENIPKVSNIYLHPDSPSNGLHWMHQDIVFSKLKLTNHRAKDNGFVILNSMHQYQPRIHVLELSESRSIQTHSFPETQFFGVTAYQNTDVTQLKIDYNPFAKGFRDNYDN
# Test: PBM E-score of 8-mer (E-score (dimensionless, -0.5 to 0.5)); Tbr is Tbrain of the sea star Patiria miniata (Pm) or the sea urchin Strongylocentrotus purpuratus (Sp); higher = stronger binding preference; most listed sequences are background and not binding sites
# Settings: the construct has about 5 more residues each side
# Summary of the method: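 Each ungapped 8-mer received an enrichment E-score from the Universal PBM Analysis Suite, averaged over duplicate arrays. The proteins were Tbr T-box DNA-binding domains, covering the whole T-box plus about five flanking residues, fused to GST and expressed in BL21 E. coli at 20 °C before glutathione affinity purification. Universal Agilent oligonucleotide arrays were made double-stranded by primer extension and incubated with 200 nM protein in PBS (pH 7.5). The arrays were then scanned and quantified, and every 8-mer was scored from probe intensities.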
row,Sequence,PBM E-score of 8-mer
1,AGTCGGTA,0.0634 ± 0.0058
2,ATTGCGAA,0.284 ± 0.041
3,TGGAAGAA,-0.263 ± 0.024
4,ATCATGCC,-0.225 ± 0.071
5,ACTCTACC,-0.169 ± 0.019
6,GGTGGTAA,0.3496 ± 0.00075
7,ATAATTAG,-0.0957 ± 0.013
8,ACCATGTG,0.28 ± 0.021
9,TCCCATCA,-0.0491 ± 0.029
10,AAAGCGTC,0.175 ± 0.026
11,GCGTGGAA,0.176 ± 0.017
12,GTACAAAC,-0.163 ± 0.0071
13,GGCATGTA,-0.271 ± 0.038
14,TATGGTAA,-0.207 ± 0.048
15,GTAAGAAA,0.00863 ± 0.026
16,CATCCACC,-0.0953 ± 0.048
17,CCAGACCG,-0.267 ± 0.075
18,CATAACCA,-0.043 ± 0.017
19,GTGAGTCA,0.23905 ± 1.4e-05
20,ATTAGTGA,0.0863 ± 0.02
21,AACGAGTC,-0.0837 ± 0.041
22,AGCATTGG,-0.112 ± 0.011
23,AGCCTCGC,-0.00325 ± 0.036
24,AGCCCGGC,-0.0877 ± 0.11
25,AAAGTACT,-0.197 ± 0.068

row,Sequence,PBM E-score of 8-mer
1,CCCACAGC,0.0158 ± 0.025
2,GCGGAATA,-0.0725 ± 0.013
3,GCATGAAC,0.0836 ± 0.013
4,CGGCGTTC,-0.0378 ± 0.017
5,CCTAGTAG,-0.036 ± 0.12
6,ATTGATAA,-0.189 ± 0.017
7,CCCGACGA,-0.0481 ± 0.12
8,CCTGGTAA,0.0572 ± 0.0035
9,CAAGACGG,-0.02 ± 0.1
10,ACCGAATA,0.0186 ± 0.046
11,GTCCCGGA,-0.2 ± 0.059
12,ACCATCGT,-0.0427 ± 0.071
13,CAGATGGG,-0.107 ± 0.061
14,CACCATGC,0.232 ± 0.025
15,AGCACAAA,-0.155 ± 0.039
16,GAGTTTTA,0.0474 ± 0.05
17,ACACATAA,0.269 ± 0.016
18,CCCCTTAA,-0.192 ± 0.015
19,TCTCGGCA,0.0587 ± 0.028
20,TCACGCGA,0.3949 ± 0.0026
21,AACGGGAG,0.00903 ± 0.026
22,GCACGCAC,0.259 ± 0.029
23,GCGGGACC,0.00436 ± 0.015
24,GAGCTTTA,-0.1915 ± 0.0013
25,TAGACGGA,-0.272 ± 0.0051

row,Sequence,PBM E-score of 8-mer
1,AAGCTGCT,-0.00363 ± 0.18
2,ACACGTAG,0.1948 ± 0.0013
3,CCTCGAGA,-0.0435 ± 0.057
4,ACCTCACT,0.233 ± 0.069
5,GAGGCTTA,-0.102 ± 0.039
6,CGCAGTCC,-0.0737 ± 0.0086
7,CTTCCAAC,-0.0709 ± 0.089
8,GTGGCTTA,-0.0681 ± 0.11
9,CGGTAGGC,0.00743 ± 0.0063
10,CGTAGCAA,-0.109 ± 0.088
11,AGGGGAGA,-0.125 ± 0.0092
12,AGTGTACA,-0.0268 ± 0.0072
13,TTTTAAAA,-0.227 ± 0.021
14,TATAGTAA,-0.1429 ± 0.0002
15,CCCCCCTC,-0.318 ± 0.073
16,TAGTACGA,-0.0812 ± 0.014
17,CGAGTCGC,0.145 ± 0.018
18,AAGCGCAT,-0.179 ± 0.042
19,ACCAATTA,-0.137 ± 0.013
20,GACAACAC,0.385 ± 0.0048
21,TCCCGCAA,-0.238 ± 0.011
22,CGTGACGA,0.311 ± 0.029
23,ACACTACA,0.125 ± 0.0091
24,ACGGAGGC,-0.238 ± 0.084
25,GGAGTTGA,-0.008 ± 0.053

row,Sequence,PBM E-score of 8-mer
1,GATCACGC,0.359 ± 0.037
2,TATTACCA,-0.00451 ± 0.042
3,CTCCTAGC,-0.00411 ± 0.048
4,ACGAATAG,-0.0204 ± 0.0012
5,CCAGTAGG,0.189 ± 0.012
6,ACTCTCCG,-0.0225 ± 0.053
7,ACCCACTG,-0.181 ± 0.077
8,CAGTACCC,-0.0243 ± 0.0012
9,ACCTAAAA,-0.121 ± 0.016
10,GGCGTTCA,-0.0881 ± 0.067
11,GCGGTAGA,-0.0144 ± 0.029
12,TATACAGA,-0.215 ± 0.013
13,CGCATACA,-0.108 ± 0.035
14,ACTCTTAT,-0.0294 ± 0.038
15,TCAGGACA,-0.0721 ± 0.0019
16,CGCGTCTC,0.0854 ± 0.12
17,CATCGCAC,0.376 ± 0.019
18,GACCGTTA,0.0682 ± 0.01
19,AGTGTTTC,0.141 ± 0.03
20,TGCTCACA,0.3801 ± 0.0011
21,AGTTGAAC,-0.00466 ± 0.11
22,ATACTCGG,0.0184 ± 0.02
23,AAGAATAC,-0.12 ± 0.087
24,GACAATTA,0.029 ± 0.11
25,ACGAGGCG,0.127 ± 0.053

row,Sequence,PBM E-score of 8-mer
1,CCGAGGAG,-0.101 ± 0.019
2,CGGAGTAG,-0.211 ± 0.031
3,AGATAGCT,0.00722 ± 0.035
4,ACTGTGTC,0.173 ± 0.034
5,ACGAACAA,0.0508 ± 0.036
6,AATTAGGG,-0.173 ± 0.016
7,AGTGTAAC,0.24 ± 0.014
8,CACGCACA,0.207 ± 0.016
9,GCCACACA,0.335 ± 0.0096
10,GAAGAATA,-0.131 ± 0.0024
11,CGGGGACG,-0.082 ± 0.012
12,AGGGAGCC,-0.14 ± 0.027
13,ACAATCAC,0.187 ± 0.051
14,CTGGCTAA,-0.0662 ± 0.039
15,CAATGGTA,-0.0293 ± 0.0032
16,GCAGGCGC,0.172 ± 0.029
17,ATTCGAAC,-0.178 ± 0.018
18,GCGCACGC,0.201 ± 0.042
19,TGGATGAA,-0.1666 ± 0.0014
20,ACTTACGC,0.142 ± 0.009
21,CGCCCCCG,-0.161 ± 0.043
22,GACTCTGA,-0.0787 ± 0.071
23,GTCGGGGA,-0.0893 ± 0.0039
24,AAGGCCCC,-0.291 ± 0.089
25,GACCAGAA,-0.0976 ± 0.044

row,Sequence,PBM E-score of 8-mer
1,GCGAGGCC,0.227 ± 0.045
2,ACCAACCG,-0.0483 ± 0.074
3,GCCGGGCC,-0.177 ± 0.053
4,ACGAATAA,-0.0327 ± 0.0049
5,GGGCCTTA,-0.277 ± 0.06
6,AGGTCTCG,0.0437 ± 0.019
7,GTTTCGAA,-0.0969 ± 0.0012
8,AGCCCCCA,-0.171 ± 0.033
9,TCCTTGCA,-0.0806 ± 0.04
10,GTACGAAC,-0.0547 ± 0.0048
11,GCAGAACA,-0.218 ± 0.033
12,AGATATCC,-0.18 ± 0.048
13,AAATGATT,-0.135 ± 0.01
14,ATGTCAGA,-0.15 ± 0.011
15,CTACTGGA,-0.0141 ± 0.0028
16,TCCGTGAA,0.16 ± 0.012
17,ACGATCGC,0.324 ± 0.026
18,AGCGAACA,0.078 ± 0.037
19,AGGGACAA,-0.0486 ± 0.0021
20,GTAAAGGA,-0.15 ± 0.099
21,CACTTGAG,0.166 ± 0.013
22,ACCCCCTA,-0.098 ± 0.013
23,TAAGAGCA,-0.252 ± 0.049
24,GCGAATCA,0.205 ± 0.034
25,GCTTAGAC,-0.168 ± 0.039

row,Sequence,PBM E-score of 8-mer
1,CCAAGGCC,-0.186 ± 0.044
2,ATGAGTGG,0.00304 ± 0.024
3,ACGCGCAT,0.0574 ± 0.044
4,CAATAAAG,-0.15 ± 0.025
5,CCCCTGGA,-0.172 ± 0.033
6,CACGAACA,0.041 ± 0.016
7,ATGTTTGA,0.113 ± 0.12
8,TCCTGGCA,-0.0332 ± 0.014
9,CGCCGGGA,-0.0874 ± 0.038
10,GCGCTCCC,-0.1692 ± 0.00033
11,CATGTATA,-0.0466 ± 0.034
12,ATAACGTA,-0.0438 ± 0.038
13,ATGCTGTG,0.0749 ± 0.008
14,CAGATCGC,0.244 ± 0.017
15,AGCGGGAG,0.0455 ± 0.02
16,ATATCCCC,-0.0385 ± 0.045
17,GGGTCACC,-0.0559 ± 0.047
18,AGGGCTAC,-0.0643 ± 0.012
19,AGCAGCTC,-0.208 ± 0.067
20,ATGGGTCC,-0.253 ± 0.016
21,CTTGGTCA,-0.147 ± 0.026
22,GCACGCTA,0.0823 ± 0.071
